Reference: PubChem BioAssay AID540267 (National Center for Advancing Translational Sciences (NCATS), 2011)
Hit rate of the full screen: of about 340,000 compounds, about 530 (0.16%) were called active. This list was built around the results that the source calls inconclusive (neither active nor inactive); the mix of calls is not that of the screen. Rule as the data show it: active = activity change below about -80%; inconclusive = between about -30% and that limit; inactive = weaker than that.
% is scaled to controls: 0 for no effect and ±100 for the full control effect.

Experiment: Small Molecules that selectively kill Giardia lamblia: qHTS;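 also: parasites exposed to compound for two days anaerobically before the ATP read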
Settings: Giardia lamblia trophozoite viability; at 7.66 µM; stronger effect = lower value
How it was run: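 Trophozoites 100 cells/well + cpd; 48 hrs, 37 deg C, anaerobic. ATPLite 1-Step added, 15-30 min RT, luminescence read (ATP-based viability).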
With `O=C(Cc1cccs1)N1CCN(S(=O)(=O)c2ccc(Cl)c(C(F)(F)F)c2)CC1` the activity change was inconclusive: -33.3% [inhibitor]. With `CCCN1C=CC(=C2C(=O)c3ccccc3C2=O)C=C1` the activity change was active: -97%. For `Cc1ccc(NC(=O)COC(=O)/C=C/c2ccccc2)cc1S(=O)(=O)N1CCOCC1`, the activity change was inconclusive: -31% [inhibitor]. In the case of `CN1C(=O)[C@H]2[C@@H](/C=C/c3ccccc3)N3C(=O)CN(Cc4ccccn4)C(=O)[C@@]3(C)[C@H]2C1=O`, the activity change is reported as inconclusive: -36.8% [inhibitor]. In the case of `COc1ccc(/C=C/C(=O)NNC(=O)c2ccncc2)c(OC)c1`, the activity change is reported as inconclusive: -33.7% [inhibitor]. In the case of `CN(C(=O)C1CCN(S(=O)(=O)c2ccccc2)CC1)c1c(N)n(Cc2ccccc2)c(=O)[nH]c1=O`, the activity change is reported as inconclusive: -34.7% [inhibitor]. In the case of `O=C(c1ccccc1)N1CCN(c2ccccc2F)CC1`, the activity change is reported as inconclusive: -32.5% [inhibitor]. For `CC(C)(C)c1ccc(C(=O)N2CCC(C(=O)c3ccccc3)CC2)cc1`, the activity change was inactive: 12.2%. For `N#Cc1ccc(CSc2ccccn2)c(Cl)c1`, the activity change was inactive: -8.71%. For `Cn1c(N=Nc2ccccc2)nc2ccccc21`, the activity change was inconclusive: -64.5% [inhibitor]. In the case of `COc1ccc(C2CC(=O)C(C=NCCN3CCN(C(=S)Nc4ccccc4)CC3)=C(O)C2)cc1OC` (centres undefined), the activity change is reported as inconclusive: -30.3% [inhibitor]. For `O=C(c1ccc([N+](=O)[O-])s1)N1CCN(c2ccc(C(F)(F)F)cn2)CC1`, the activity change was inconclusive: -60% [inhibitor]. In the case of `CCCCn1c(N)c(N(CC(C)C)C(=O)CCCc2nc3ccccc3s2)c(=O)[nH]c1=O`, the activity change is reported as inactive: -3.09%. In the case of `Cc1cccc(NC(=O)/C=C/c2ccc(Cl)cc2)n1`, the activity change is reported as inconclusive: -45.5% [inhibitor]. In the case of `Cc1cc2cc(C=C(C#N)C#N)c(Cl)nc2cc1C`, the activity change is reported as inactive: -15.7%. In the case of `O=C(NC(=S)Nc1ccc(N2CCOCC2)c(Cl)c1)C(c1ccccc1)c1ccccc1`, the activity change is reported as inconclusive: -31.5% [inhibitor]. For `CCOc1ccc(C(=O)Nc2ccccc2C(=O)O)cc1`, the activity change was inconclusive: -64.1% [inhibitor]. With `O=c1oc2cc(OCc3c(F)c(F)c(F)c(F)c3F)ccc2cc1-c1ccccn1` the activity change was inconclusive: -32.5% [inhibitor]. In the case of `O=C(COc1ccccc1)N/N=C/c1ccc([N+](=O)[O-])o1`, the activity change is reported as active: -96.9%. For `COc1cc2c(cc1NC(=O)CN(C)Cc1cccc(OC)c1OC)oc1ccccc12`, the activity change was inactive: 11.2%. With `Cc1ccc(CCNC(=O)CN2C(=O)COc3ccc(S(=O)(=O)N4CCOCC4)cc32)cc1` the activity change was inconclusive: -48.5% [inhibitor]. In the case of `CCOC(=O)c1ccc(N2CSC3=C(C#N)C(c4cccs4)CC(=O)N3C2)cc1` (centres undefined), the activity change is reported as inconclusive: -30.1% [inhibitor]. For `CCN(CC)CCOc1nnc(-c2ccc(C)cc2)c2ccccc12`, the activity change was inactive: 6.49%. For `Cc1cc2ccccn2c1C(=O)c1ccc([N+](=O)[O-])cc1[N+](=O)[O-]`, the activity change was active: -85.6%. For `Cc1cc(C)c2c(C(C)(C)C)nn(-c3ccccc3)c2n1`, the activity change was inconclusive: -42.3% [inhibitor]. For `CCC(=O)NC(c1cc(Cl)c2cccnc2c1O)C1CC1` (centres undefined), the activity change was inactive: -14.1%. In the case of `Cc1cccc(NC(=O)/C=C/c2ccc3c(c2)OCO3)n1`, the activity change is reported as inconclusive: -44.8% [inhibitor]. With `O=C(CN1C(=O)C2C3C=CC(C4CC34)C2C1=O)Nc1cnc2ccccc2c1` (centres undefined) the activity change was inconclusive: -31.7% [inhibitor]. In the case of `CCCCc1n[nH]c(=S)n1Cc1ccc(Cl)cc1`, the activity change is reported as inactive: -9.91%. In the case of `Cc1ccccc1Nc1c(-c2ccc(N3CCOCC3)cc2)nc2ncccn12`, the activity change is reported as inconclusive: -35% [inhibitor]. For `O=[N+]([O-])c1ccccc1S(=O)(=O)NCCSc1ccccc1`, the activity change was inconclusive: -32.7% [inhibitor]. For `Cc1nc(SCC(=O)c2cc3ccccc3oc2=O)c(C#N)c(-c2ccccc2)c1C(=O)Nc1ccccc1`, the activity change was inconclusive: -32.8% [inhibitor]. In the case of `O=C(COc1ncnc2ccccc12)NC1CCCCC1`, the activity change is reported as inconclusive: -38.1% [inhibitor]. With `CC(=O)N1CC(c2ccccc2)C(c2ccc(Cl)cc2)=N1` (centres undefined) the activity change was inactive: 6.35%. For `Cc1cc(C(=O)COc2cccnc2[N+](=O)[O-])c(C)n1Cc1ccco1`, the activity change was inconclusive: -72.2% [inhibitor]. With `O=C(c1ccc(=O)[nH]n1)N1CCc2ccccc2C1` the activity change was inconclusive: -32.3% [inhibitor]. With `CN1CCN(C2=Nc3c(Cl)cc(Cl)c4cccc2c34)CC1` the activity change was inactive: -5.96%. For `Cc1c(C)c2ccc(OC(C)C(=O)NC3CC(C)(C)NC(C)(C)C3)cc2oc1=O` (centres undefined), the activity change was inconclusive: -37.4% [inhibitor]. For `Cc1ccccc1C(=O)NC1CC2CCCC(C1)N2Cc1ccccc1` (centres undefined), the activity change was inconclusive: -38.1% [inhibitor]. With `O=C(CCCN1C(=O)[C@H]2CC=CC[C@H]2C1=O)NCc1nc(-c2ccccc2)no1` the activity change was inconclusive: -30.2% [inhibitor]. With `COc1ccc(OC)c(C2=NS(=O)(=O)N(C)C(C(=O)Nc3cccc(C(C)=O)c3)=C2)c1` the activity change was inconclusive: -31.1% [inhibitor]. For `O=C(CNCc1ccccc1Cl)Nc1ccccc1N1CCCCC1`, the activity change was inconclusive: -36% [inhibitor]. In the case of `CN(C)CCCOc1ccc2c(c1)Sc1ccccc1CC2=O`, the activity change is reported as inconclusive: -31.2% [inhibitor]. With `O=C(NC(=O)c1ccccc1F)OCc1ccc(Cl)cc1Cl` the activity change was inconclusive: -33.8% [inhibitor]. In the case of `COc1ccc(CNc2nc3ccc(C)cc3s2)c(OC)c1OC`, the activity change is reported as inconclusive: -34.1% [inhibitor]. With `CCCCn1c(NCc2ccc(N(C)C)cc2)nc2ccccc21` the activity change was inactive: 23.3%. With `CC(CCc1ccc(O)cc1)NCCc1ccc(O)c(O)c1` (centres undefined) the activity change was inactive: 5.76%. For `COc1ccc(OC)c(S(=O)(=O)N2CCC(C(=O)NC3CCCCC3)CC2)c1`, the activity change was inconclusive: -36.3% [inhibitor]. For `O=C(COc1cccnc1[N+](=O)[O-])Nc1ccc2c(c1)OCO2`, the activity change was inconclusive: -65.9% [inhibitor].
